Where “and” joins values, the source holds several entries; their conditions need not be identical. Equal entries are not always repeated. Hit rate of the full screen: of about 400,000 compounds, about 2,200 (0.55%) were called active. This list was built around the results that the source calls inconclusive (neither active nor inactive); the mix of calls is not that of the screen. Calls follow the shape of the dose curve; as a rule, active = well fitted inhibition curve with a large enough effect; inconclusive = small, poorly fitted or top-dose-only effect, or another doubt; inactive = no such curve, though single readings can be large or run the other way. A potency beside an inconclusive call is a rough fit, not a confirmed value.
These molecules were tested against DNA polymerase kappa (Homo sapiens) (UniProt Q9UBT6) (assay: qHTS for Inhibitors of Polymerase Kappa). Conditions: purified Pol kappa, fluorescent DNA synthesis assay, 10 min; series mostly up to 107 µM.
Chain of UniProt Q9UBT6 (Q9UBT6 whole entry, looked up): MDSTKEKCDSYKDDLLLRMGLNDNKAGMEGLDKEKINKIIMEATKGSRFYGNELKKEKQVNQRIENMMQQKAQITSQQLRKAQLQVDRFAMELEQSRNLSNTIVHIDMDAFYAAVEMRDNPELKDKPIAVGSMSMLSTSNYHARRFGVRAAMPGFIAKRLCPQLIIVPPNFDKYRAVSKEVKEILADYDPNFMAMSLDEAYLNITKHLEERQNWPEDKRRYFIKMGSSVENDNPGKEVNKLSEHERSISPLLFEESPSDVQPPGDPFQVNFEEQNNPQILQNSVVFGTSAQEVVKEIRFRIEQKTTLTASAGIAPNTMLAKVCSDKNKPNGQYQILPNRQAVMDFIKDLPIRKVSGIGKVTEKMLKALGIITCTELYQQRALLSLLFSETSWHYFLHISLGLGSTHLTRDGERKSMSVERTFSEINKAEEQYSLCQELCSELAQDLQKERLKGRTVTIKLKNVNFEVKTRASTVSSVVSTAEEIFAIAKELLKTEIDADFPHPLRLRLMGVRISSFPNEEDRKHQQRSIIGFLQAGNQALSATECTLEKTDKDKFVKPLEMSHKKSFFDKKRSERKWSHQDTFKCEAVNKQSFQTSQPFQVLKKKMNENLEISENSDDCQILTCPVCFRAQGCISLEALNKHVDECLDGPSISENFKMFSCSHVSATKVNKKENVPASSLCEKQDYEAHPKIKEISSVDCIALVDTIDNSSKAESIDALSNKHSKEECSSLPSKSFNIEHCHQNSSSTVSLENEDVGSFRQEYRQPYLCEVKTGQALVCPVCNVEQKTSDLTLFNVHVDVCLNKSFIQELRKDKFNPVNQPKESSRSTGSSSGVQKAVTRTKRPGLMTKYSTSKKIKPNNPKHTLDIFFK
Description: The processing and repair of DNA interstrand crosslinks (ICL) in eukaryotic cells are extremely complex, potentially involving multiple DNA repair and damage tolerance pathways, including homologous recombination, nucleotide excision repair, translesion synthesis (TLS), and cell cycle checkpoints.
To that end, in a collaboration between the Oregon Health & Science University and the NIH Chemical Genomics Center a 1536-well high-throughput screen was developed. This fluorescent screen was assayed against the NIH Molecular Libraries Small Molecule Repository (MLSMR) to discover inhibitors of Pol Kappa.
NIH Chemical Genomics Center [NCGC]
NIH Molecular Libraries Probe Centers Network [MLPCN]
Assay Submitter (PI): Stephen Lloyd, Oregon Health & Science University
Three microliters of reagents (buffer in column 3 and 4 as negative control and 10 nM Pol kappa in columns 1, 2, and 5-48) were dispensed into a 1536-well black solid-bottom plate. Compounds (23 nL) were transferred via Kalypsys pin tool equipped with 1536-pin array. The plates were then incubated for 15 min at room temperature, and 1 uL substrate (50 nM final concentration) were then added to start the reaction and kinetically read twice at 0 min and 10 min on the Viewlux reader
% is scaled to controls: 0 for no effect and ±100 for the full control effect; potency is read from the fitted curve at half-maximal effect; tags tell the direction and shape of the fitted curve.

| Compound | Potency | activity, negative = inhibition |
| --- | --- | --- |
| COC(=O)C(C)Oc1ccc2c(c1)O/C(=C\c1ccco1)C2=O (configuration not stated) | inconclusive: 50.1 µM [inhibitor, partial curve, poor fit] | – |
| CCOc1ccccc1NC(=O)N(Cc1ccc(C)o1)C1CCN(C(C)=O)CC1 | inactive | – |
| O=C(c1ccccc1Br)N(Cc1ccco1)Cc1ccco1 | inconclusive: 89.1 µM [inhibitor, partial curve, poor fit] | – |
| C(=C\c1ccnc2ccccc12)/c1ccc(N2CCOCC2)cc1 | inconclusive: 56.2 µM [inhibitor, partial curve, poor fit] | – |
| CCc1cccc(C)c1NC(=O)Cn1nc(C)n2cccc2c1=O | inconclusive: 89.1 µM [inhibitor, single point] | – |
| Oc1c(Br)cc(/C=N/n2c(-c3ccccc3)n[nH]c2=S)c(O)c1Br | active: 39.8 µM | – |
| COc1ccc(-c2ccc3c(c2)S(=O)(=O)c2cccc(C(=O)NCc4cccc(OC(F)(F)F)c4)c2C3=O)cc1OC | inactive | – |
| Cc1cccc(N=C2NC(=O)/C(=C/c3cccnc3)S2)c1C | inactive | – |
| CCCC1=NN2C(=N)/C(=C\c3cc(C)n(Cc4ccccc4)c3C)C(=O)N=C2S1 | inactive | – |
| CCCn1c(CCC(=O)Nc2cc(C(=O)OC)cc(C(=O)OC)c2)nc2cccnc21 | inactive | – |
| CN(Cc1ccco1)c1ncncc1-c1ccccc1Cl | inconclusive: 39.8 µM [inhibitor, partial curve, poor fit] | – |
| Cc1ccc(-c2cc(C(=O)Nc3ccc(S(=O)(=O)N4CC(C)OC(C)C4)cc3)[nH]n2)c(O)c1 (configuration not stated) | inconclusive: 89.1 µM [inhibitor, partial curve, poor fit] | – |
| OCCSc1nc(-c2ccccc2)nc2ccc(F)cc12 | inconclusive: 89.1 µM [inhibitor, single point] | – |
| COc1ccc2nc(-c3ccco3)c(-c3ccco3)nc2c1 | inconclusive: 63.1 µM [inhibitor, partial curve, poor fit] | – |
| Cc1cc(NS(=O)(=O)c2ccc(Nc3nc(-c4sc(N)nc4C)cs3)cc2)no1 | active: 25.1 µM | – |
| c1ccc2c(CCNc3ncnc4nc[nH]c34)c[nH]c2c1 | inactive | – |
| Cc1ccc(-c2ccc(CCC(=O)O)n2Cc2ccco2)cc1 | inactive | – |
| O=[N+]([O-])c1ccc2c(c1)S(=O)(=O)C=C2 | inactive | – |
| COc1ccc(C(=O)NCCN(C)C)c2nc3ccccc3cc12 | inconclusive: 56.2 µM [inhibitor, partial curve, poor fit] | – |
| Cc1nc2ncnn2c(N2CCN(C(=O)Cc3cccs3)CC2)c1C | inconclusive: 89.1 µM [inhibitor, single point] | – |
| CNC(=O)COC(=O)c1cc(-c2ccco2)nc2ccccc12 | active: 25.1 µM | – |
| O=C(COC(=O)CCC(=O)c1ccc(Cl)cc1)NCc1ccco1 | inconclusive: 89.1 µM [inhibitor, single point] | – |
| COc1cc(C2OCC3C(c4cc(OC)c(OC)c(OC)c4)OCC23)cc(OC)c1OC (configuration not stated) | inconclusive: 100 µM [inhibitor, partial curve, poor fit] | – |
| O=C(COC(=O)C1CC2C=CC1C2)NCc1ccco1 (configuration not stated) | active: 39.8 µM | – |

| Compound | Potency | activity, negative = inhibition |
| --- | --- | --- |
| COc1cc(/C=C2\NC(=S)NC2=O)ccc1OCc1cccc(C(=O)O)c1 | inconclusive: 39.8 µM [inhibitor, single point] | – |
| Cc1cc(=O)oc2cc(OCc3ccc(C(=O)OCC(=O)NC4CCS(=O)(=O)C4)cc3)ccc12 (configuration not stated) | active: 79.4 µM | – |
| COc1ccc2c(c1)C=C(CN1CCN(Cc3ccccc3C)C(CCO)C1)CO2 (configuration not stated) | inconclusive: 100 µM [inhibitor, single point] | – |
| Cc1ccsc1C=Nc1ccc(O)cc1 | active: 89.1 µM | – |
| Cc1ccc2nc(-c3ccc(Cl)c(NC(=O)c4ccc5c(c4)OCCO5)c3)oc2c1 | inactive | – |
| O=C(Cn1nc(-c2ccccc2)c2cnc3ccccc3c21)Nc1ccccc1 | inactive | – |
| COc1ccccc1CC(=N)N1C[C@@H]2C(=O)CCC(c3ccccc3)(c3ccccc3)[C@@H]2C1 | – | inactive: -10.9% [at 19.4 µM] |
| O=C(c1c(F)cccc1F)N1CCC(O)(c2ccc(F)cc2)CC1 | inactive | – |
| Cc1cccn2c(=O)c3cc(C#N)c(=NC(=O)c4ccco4)n(Cc4ccco4)c3nc12 | inconclusive: 89.1 µM [inhibitor, single point] | – |
| COc1ccc(N2CC(NC(=O)/C=C\c3ccc4c(c3)OCO4)CC2=O)cc1 (configuration not stated) | inactive | – |
| O=C(CSc1ccsc1[N+](=O)[O-])Nc1cc(F)ccc1F | active: 25.1 µM | – |
| CCCC(C)NC(=O)c1c2c(nc3ccccc13)CCC2 (configuration not stated) | inconclusive: 89.1 µM [inhibitor, single point] | – |
| O=c1c(O)c(-c2ccc(O)c(O)c2)oc2cc(O)ccc12 | active: 562 nM and active: 398 nM and active: 2.82 µM | – |
| C/C(=N\NC(=O)c1cc(O)cc(O)c1)c1ccc(NC(=O)Cc2ccccc2)cc1 | active: 22.4 µM | – |
| O=S(=O)(c1ccc(Br)s1)N1CCN(c2ccc(F)cc2)CC1 | inconclusive: 89.1 µM [inhibitor, single point] | – |
| O=C1C(=O)C(c2ccc(O)cc2O)Oc2cc(O)cc(O)c21 (configuration not stated) | active: 12.6 µM | – |
| Cc1ccc(NC(=O)N/C=C/c2ccco2)cc1C | active: 79.4 µM | – |
| O=C(Nc1cccc(C(=O)O)c1)/C(=C\c1ccco1)NC(=O)c1ccccc1Cl | active: 35.5 µM | – |
| CCOC(=O)C1=C(O)/C(=C/c2ccc(-c3ccccc3C(=O)O)o2)SC1=Nc1ccc(C)cc1 | active: 39.8 µM | – |
| CN(N=O)c1ccc(/C=C2\C=Cc3ccccc32)cc1 | inactive | – |
| CC(=O)c1ccc(NC(=O)c2noc3c2CCC3)cc1 | inconclusive: 89.1 µM [inhibitor, single point] | – |
| O=C(CCS(=O)(=O)c1ccc(Br)cc1)N1CCN(Cc2ccccc2)CC1 | inconclusive: 100 µM [inhibitor, partial curve, poor fit] | – |
| Cc1cc(=O)oc2cc(OCC(=O)N3CCN(c4ccc(F)cc4)CC3)ccc12 | inconclusive: 89.1 µM [inhibitor, single point] | – |
